Experimental data published in the supplement of paper PMC8728848.
Some of the results follow.

Columns and labels:
Test in all cases: glycan array binding signal (z-score within array); higher = stronger binding
Conditions in all cases: glycan notation: IUPAC condensed, linker removed; mutation: H262T
Fuc(a1-2)Gal = molecular target: Fuc(a1-2)Gal
Summary of the method: (§1)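 Negative Z-scores can be read as non-binding. The Z-score is calculated within each array and then averaged across arrays of one protein sequence at different concentrations or buffers and across linkers. Arrays, 3228 in all, were curated from the Consortium for Functional Glycomics database and kept only where the protein sequence was available.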

Fuc(a1-2)Gal(b1-3)GalNAc = molecular target: Fuc(a1-2)Gal(b1-3)GalNAc
Summary of the method: as §1

[1] = molecular target: Fuc(a1-2)Gal(b1-3)GalNAc(a1-3)[Fuc(a1-2)]Gal(b1-4)Glc
Summary of the method: as §1

[2] = molecular target: Fuc(a1-2)Gal(b1-3)GalNAc(a1-3)[Fuc(a1-2)]Gal(b1-4)GlcNAc
Summary of the method: as §1

[3] = molecular target: Fuc(a1-2)Gal(b1-3)GalNAc(b1-3)Gal
Summary of the method: as §1

[4] = molecular target: Fuc(a1-2)Gal(b1-3)GalNAc(b1-3)Gal(a1-4)Gal(b1-4)Glc
Summary of the method: as §1

[5] = molecular target: Fuc(a1-2)Gal(b1-3)GalNAc(b1-4)[Neu5Ac(a2-3)]Gal(b1-4)Glc
Summary of the method: as §1

Fuc(a1-2)Gal(b1-3)GlcNAc = molecular target: Fuc(a1-2)Gal(b1-3)GlcNAc
Summary of the method: as §1

[6] = molecular target: Fuc(a1-2)Gal(b1-3)GlcNAc(b1-2)Man(a1-3)[Fuc(a1-2)Gal(b1-3)GlcNAc(b1-2)Man(a1-6)]Man(b1-4)GlcNAc(b1-4)GlcNAc
Summary of the method: as §1

[7] = molecular target: Fuc(a1-2)Gal(b1-3)GlcNAc(b1-2)Man(a1-3)[Fuc(a1-2)Gal(b1-3)GlcNAc(b1-2)Man(a1-6)]Man(b1-4)GlcNAc(b1-4)[Fuc(a1-6)]GlcNAc
Summary of the method: as §1

[8] = molecular target: Fuc(a1-2)Gal(b1-3)GlcNAc(b1-3)Gal(b1-4)Glc
Summary of the method: as §1

[9] = molecular target: Fuc(a1-2)Gal(b1-3)GlcNAc(b1-3)GalNAc
Summary of the method: as §1

[10] = molecular target: Fuc(a1-2)Gal(b1-3)GlcNAc(b1-3)[Fuc(a1-2)Gal(b1-3)GlcNAc(b1-6)]GalNAc
Summary of the method: as §1

[11] = molecular target: Fuc(a1-2)Gal(b1-3)GlcNAc(b1-3)[Gal(b1-4)GlcNAc(b1-6)]Gal(b1-4)Glc
Summary of the method: as §1

[12] = molecular target: Fuc(a1-2)Gal(b1-3)GlcNAc(b1-3)[Neu5Ac(a2-6)Gal(b1-4)GlcNAc(b1-6)]Gal(b1-4)Glc
Summary of the method: as §1

[13] = molecular target: Fuc(a1-2)Gal(b1-3)GlcNAc6S
Summary of the method: as §1

[14] = molecular target: Fuc(a1-2)Gal(b1-3)[Fuc(a1-4)]GlcNAc
Summary of the method: as §1

[15] = molecular target: Fuc(a1-2)Gal(b1-3)[Fuc(a1-4)]GlcNAc(b1-2)Man(a1-3)[Fuc(a1-2)Gal(b1-3)[Fuc(a1-4)]GlcNAc(b1-2)Man(a1-3)]Man(b1-4)GlcNAc(b1-4)GlcNAc
Summary of the method: as §1

[16] = molecular target: Fuc(a1-2)Gal(b1-3)[Fuc(a1-4)]GlcNAc(b1-2)Man(a1-3)[Fuc(a1-2)Gal(b1-3)[Fuc(a1-4)]GlcNAc(b1-2)Man(a1-6)]Man(b1-4)GlcNAc(b1-4)[Fuc(a1-6)]GlcNAc(b1-4)[Fuc(a1-6)]GlcNAc
Summary of the method: as §1

[17] = molecular target: Fuc(a1-2)Gal(b1-3)[Fuc(a1-4)]GlcNAc(b1-3)[Fuc(a1-3)[Gal(b1-4)]GlcNAc(b1-6)]Gal(b1-4)Glc
Summary of the method: as §1

[18] = molecular target: Fuc(a1-2)Gal(b1-3)[Fuc(a1-4)]GlcNAc(b1-3)[Gal(b1-4)GlcNAc(b1-6)]Gal(b1-4)Glc
Summary of the method: as §1

[19] = molecular target: Fuc(a1-2)Gal(b1-4)Fuc(a1-3)]GlcNAc(b1-2)Man(a1-3)[Fuc(a1-2)Gal(b1-4)[Fuc(a1-3)]GlcNAc(b1-2)Man(a1-6)]Man(b1-4)GlcNAc(b1-4)GlcNAc
Summary of the method: as §1

Fuc(a1-2)Gal(b1-4)Glc = molecular target: Fuc(a1-2)Gal(b1-4)Glc
Summary of the method: as §1

Fuc(a1-2)Gal(b1-4)Glc6S = molecular target: Fuc(a1-2)Gal(b1-4)Glc6S
Summary of the method: as §1

Fuc(a1-2)Gal(b1-4)GlcNAc = molecular target: Fuc(a1-2)Gal(b1-4)GlcNAc
Summary of the method: as §1

[20] = molecular target: Fuc(a1-2)Gal(b1-4)GlcNAc(b1-2)Man
Summary of the method: as §1

[21] = molecular target: Fuc(a1-2)Gal(b1-4)GlcNAc(b1-2)Man(a1-3)[Fuc(a1-2)Gal(b1-4)GlcNAc(b1-2)Man(a1-6)]Man(b1-4)GlcNAc(b1-4)GlcNAc
Summary of the method: as §1

[22] = molecular target: Fuc(a1-2)Gal(b1-4)GlcNAc(b1-2)Man(a1-3)[Fuc(a1-2)Gal(b1-4)GlcNAc(b1-2)Man(a1-6)]Man(b1-4)GlcNAc(b1-4)[Fuc(a1-6)]GlcNAc
Summary of the method: as §1

[23] = molecular target: Fuc(a1-2)Gal(b1-4)GlcNAc(b1-2)[Fuc(a1-2)Gal(b1-4)GlcNAc(b1-4)]Man(a1-3)[Fuc(a1-2)Gal(b1-4)GlcNAc(b1-2)Man(a1-6)]Man(b1-4)GlcNAc(b1-4)GlcNAc
Summary of the method: as §1

[24] = molecular target: Fuc(a1-2)Gal(b1-4)GlcNAc(b1-3)Gal(b1-4)GlcNAc
Summary of the method: as §1

[25] = molecular target: Fuc(a1-2)Gal(b1-4)GlcNAc(b1-3)Gal(b1-4)GlcNAc(b1-2)Man(a1-3)[Fuc(a1-2)Gal(b1-4)GlcNAc(b1-3)Gal(b1-4)GlcNAc(b1-2)Man(a1-6)]Man(b1-4)GlcNAc(b1-4)GlcNAc
Summary of the method: as §1

[26] = molecular target: Fuc(a1-2)Gal(b1-4)GlcNAc(b1-3)Gal(b1-4)GlcNAc(b1-3)Gal(b1-4)GlcNAc
Summary of the method: as §1

[27] = molecular target: Fuc(a1-2)Gal(b1-4)GlcNAc(b1-3)GalNAc
Summary of the method: as §1

[28] = molecular target: Fuc(a1-2)Gal(b1-4)GlcNAc(b1-3)[Fuc(a1-2)Gal(b1-4)GlcNAc(b1-6)]GalNAc
Summary of the method: as §1

[29] = molecular target: Fuc(a1-2)Gal(b1-4)GlcNAc(b1-3)[Fuc(a1-3)[Gal(b1-4)]GlcNAc(b1-6)]Gal(b1-4)Glc
Summary of the method: as §1

[30] = molecular target: Fuc(a1-2)Gal(b1-4)GlcNAc(b1-6)GalNAc
Summary of the method: as §1

[31] = molecular target: Fuc(a1-2)Gal(b1-4)GlcNAc6S
Summary of the method: as §1

B1: MGL6A (Homo sapiens) (protein)
chain: MTRTYENFQYLENKVKVQGFKNGPLPLQSLLQRLCSGPCHLLLSLGLGLLLLVIICVVGFQNSKFQRDLVTLRTDFSNFTSNTVAEIQALTSQGSSLEETIASLKAEVEGFKQERQAVHSEMLLRVQQLVQDLKKLTCQVATLNNNGEEASTEGTCCPVNWVEHQDSCYWFSHSGMSWAEAEKYCQLKNAHLVVINSREEQNFVQKYLGSAYTWMGLSDPEGAWKWVDGTDYATGFQNWKPGQPDDWQGHGLGGGEDCAHFTPDGRWNDDVCQRPYHWVCEAGLGQTSQESH
**Q.** Which results are given for B1?
**A.** glycan array binding signal (z-score) (Fuc(a1-2)Gal): -0.173; glycan array binding signal (z-score) (Fuc(a1-2)Gal(b1-3)GalNAc): -0.175; glycan array binding signal (z-score) [1]: -0.173; glycan array binding signal (z-score) [2]: -0.171; glycan array binding signal (z-score) [3]: -0.173; glycan array binding signal (z-score) [4]: -0.179; glycan array binding signal (z-score) [5]: -0.173; glycan array binding signal (z-score) (Fuc(a1-2)Gal(b1-3)GlcNAc): -0.17; glycan array binding signal (z-score) [6]: -0.148; glycan array binding signal (z-score) [7]: -0.165; glycan array binding signal (z-score) [8]: -0.169; glycan array binding signal (z-score) [9]: -0.173; glycan array binding signal (z-score) [10]: -0.167; glycan array binding signal (z-score) [11]: -0.175; glycan array binding signal (z-score) [12]: -0.174; glycan array binding signal (z-score) [13]: -0.156; glycan array binding signal (z-score) [14]: -0.175; glycan array binding signal (z-score) [15]: -0.166; glycan array binding signal (z-score) [16]: -0.174; glycan array binding signal (z-score) [17]: -0.176; glycan array binding signal (z-score) [18]: -0.175; glycan array binding signal (z-score) [19]: -0.162; glycan array binding signal (z-score) (Fuc(a1-2)Gal(b1-4)Glc): -0.176; glycan array binding signal (z-score) (Fuc(a1-2)Gal(b1-4)Glc6S): -0.168; glycan array binding signal (z-score) (Fuc(a1-2)Gal(b1-4)GlcNAc): -0.174; glycan array binding signal (z-score) [20]: -0.178; glycan array binding signal (z-score) [21]: -0.167; glycan array binding signal (z-score) [22]: -0.161; glycan array binding signal (z-score) [23]: -0.185; glycan array binding signal (z-score) [24]: -0.176; glycan array binding signal (z-score) [25]: -0.171; glycan array binding signal (z-score) [26]: -0.173; glycan array binding signal (z-score) [27]: -0.175; glycan array binding signal (z-score) [28]: -0.17; glycan array binding signal (z-score) [29]: -0.173; glycan array binding signal (z-score) [30]: 7.25; glycan array binding signal (z-score) [31]: -0.173
